Laboratory results taken from patent publication US5914339A, “Substituted 1,3-benzodioxoles” (American Home Products Corporation, priority 1997, dated 1999).
The name of at least one read-out is uncertain.

Test system: plasma free fatty acids
Experiment: Effects on plasma free fatty acid levels in rats
Assay type: in vivo, rat
Settings: 0.1 mg/kg, gavage, blood collected 50 min later

| Compound | Rat Free Fatty Acid: elevation of plasma free fatty acids, % of diisopropyl ester (Standard 2) response |
| --- | --- |
| CCOC(=O)C(C)OC(=O)C1(C(=O)OC(C)C(=O)OCC)Oc2ccc(CC(C)NCC(O)c3cccc(Cl)c3)cc2O1 (stereo not drawn) [Example 29, 5-{2-[2-(3-Chloro-phenyl)-2-hydroxy-ethylamino]-propyl}-benzo[1,3]dioxole-2,2-dicarboxylic acid bis-(1-ethoxycarbonyl-ethyl) ester] | 9% |
| CC(Cc1ccc2c(c1)OC(C(=O)OCOC(=O)C(C)C)(C(=O)OCOC(=O)C(C)C)O2)NCC(O)c1cccc(Cl)c1 (stereo not drawn) [Example 45, 5-{2-[2-(3-Chloro-phenyl)-2-hydroxyethylamino]propyl}benzo[1,3] dioxole-2,2-dicarboxylic acid bis-isobutyryloxymethyl ester] | 26% |
| CC(Cc1ccc2c(c1)OC(C(=O)OCCCl)(C(=O)OCCCl)O2)NCC(O)c1cccc(Cl)c1 (stereo not drawn) [Example 73, 5-{2-[2-(3-Chloro-phenyl)-2-hydroxy-ethylamino]-propyl}-benzo[1,3]dioxole-2,2-dicarboxylic acid bis 2-(Chloro)ethyl ester] | 83% |
| CCCOC(=O)COC(=O)C1(C(=O)OCC(=O)OCCC)Oc2ccc(CC(C)NCC(O)c3cccc(Cl)c3)cc2O1 (stereo not drawn) [Example 25, 5-{2-[2-(3-Chloro-phenyl)-2-hydroxy-ethylamino]-propyl}-benzo[1,3]dioxole-2,2-dicarboxylic acid bis-propoxycarbonylmethyl ester] | 30% |
| CC(Cc1ccc2c(c1)OC(C(=O)OCCCC1CCCC1)(C(=O)OCCCC1CCCC1)O2)NCC(O)c1cccc(Cl)c1 (stereo not drawn) [Example 37, 5-{2-[2-(3-Chloro-phenyl)-2-hydroxy-ethylamino]-propyl}-benzo[1,3]dioxole-2,2-dicarboxylic acid bis-(3-cyclopentyl-propyl) ester] | 33% |
| CC(Cc1ccc2c(c1)OC(C(=O)OCOC(=O)CCC1CCCC1)(C(=O)OCOC(=O)CCC1CCCC1)O2)NCC(O)c1cccc(Cl)c1 (stereo not drawn) [Example 55, 5-{2-[2-(3-Chloro-phenyl)-2-hydroxy-ethylamino]propyl}benzo[1,3]dioxole-2,2-dicarboxylic acid bis-(3-cyclopentyl-propionyloxymethyl) ester] | 31% |
| CCCC(C)(C)COC(=O)C1(C(=O)OCC(C)(C)CCC)Oc2ccc(C[C@@H](C)NC[C@H](O)c3cccc(Cl)c3)cc2O1 [Example 86, 5-{(2R)-2-[(2R)-2-(3-Chloro-phenyl)-2-hydroxy-ethylamino]-propyl}-benzo[1,3]dioxole-2,2-dicarboxylic aicd bis-(2,2-dimethyl-pentyl) ester] | 40% |
| COC(=O)C(C)OC(=O)C1(C(=O)OC(C)C(=O)OC)Oc2ccc(CC(C)NCC(O)c3cccc(Cl)c3)cc2O1 (stereo not drawn) [Example 26, 5-{2-[2-(3-Chloro-phenyl)-2-hydroxy-ethylamino]-propyl}-benzo[1,3]dioxole-2,2-dicarboxylic acid bis-(1-methoxycarbonyl-ethyl) ester] | 42% |
| CCC(=O)OCOC(=O)C1(C(=O)OCOC(=O)CC)Oc2ccc(CC(C)NCC(O)c3cccc(Cl)c3)cc2O1 (stereo not drawn) [Example 43, 5-{2-[2-(3-Chloro-phenyl)-2-hydroxyethylamino]propyl}benzo[1,3] dioxole-2,2-dicarboxylic acid bis-propionyloxymethyl ester] | 10% |
| COCCOC(=O)C1(C(=O)OCCOC)Oc2ccc(CC(C)NCC(O)c3cccc(Cl)c3)cc2O1.Cl (stereo not drawn) [Example 1, 5-{2-[2-(3-Chloro-phenyl)-2-hydroxy-ethylamino]-propyl}-benzo[1,3]dioxole-2,2-dicarboxylic acid bis-(2-methoxy-ethyl) ester hydrochloride salt] | 65% |
| CC(Cc1ccc2c(c1)OC(C(=O)OC1CCCCC1)(C(=O)OC1CCCCC1)O2)NCC(O)c1cccc(Cl)c1.Cl (stereo not drawn) [Example 10, 5-{2-[2-(3-Chloro-phenyl)-2-hydroxy-ethylamino]-propyl}-benzo[1,3]dioxole-2,2-dicarboxylic acid bis-(cyclohexyl) ester hydrochloride salt] | 59% |
| CC(Cc1ccc2c(c1)OC(C(=O)OCOC(=O)C1CCCCC1)(C(=O)OCOC(=O)C1CCCCC1)O2)NCC(O)c1cccc(Cl)c1 (stereo not drawn) [Example 50, 5-{2-[2-(3-Chloro-phenyl)-2-hydroxyethylamino]propyl}benzo[1,3] dioxole-2,2-dicarboxylic acid bis-cyclohexanecarbonyloxymethyl ester] | 19% |
